The values below come from patent publication US6653460B1 (priority 1996, dated 2003).

The subject of test [1] is L-type and T-type calcium channels (GH3 cells).
The target of test [2] is class E voltage-gated calcium channel (human alpha-1E subunit) stably expressed in 192C cells (HEK 293) (human) (UniProt Q15878). Description: cell-based or functional assay.
Test [3] has as its system T-type calcium channels (GH-3 cells). The conditions noted are these: read-out: apparent IC50 for block of remaining transient increase in internal calcium.

The IC50 is the midpoint of a concentration-inhibition curve.

Where two headings read alike, the source gives them in different places.

UniProt Q15878, sequence (Q15878 whole entry): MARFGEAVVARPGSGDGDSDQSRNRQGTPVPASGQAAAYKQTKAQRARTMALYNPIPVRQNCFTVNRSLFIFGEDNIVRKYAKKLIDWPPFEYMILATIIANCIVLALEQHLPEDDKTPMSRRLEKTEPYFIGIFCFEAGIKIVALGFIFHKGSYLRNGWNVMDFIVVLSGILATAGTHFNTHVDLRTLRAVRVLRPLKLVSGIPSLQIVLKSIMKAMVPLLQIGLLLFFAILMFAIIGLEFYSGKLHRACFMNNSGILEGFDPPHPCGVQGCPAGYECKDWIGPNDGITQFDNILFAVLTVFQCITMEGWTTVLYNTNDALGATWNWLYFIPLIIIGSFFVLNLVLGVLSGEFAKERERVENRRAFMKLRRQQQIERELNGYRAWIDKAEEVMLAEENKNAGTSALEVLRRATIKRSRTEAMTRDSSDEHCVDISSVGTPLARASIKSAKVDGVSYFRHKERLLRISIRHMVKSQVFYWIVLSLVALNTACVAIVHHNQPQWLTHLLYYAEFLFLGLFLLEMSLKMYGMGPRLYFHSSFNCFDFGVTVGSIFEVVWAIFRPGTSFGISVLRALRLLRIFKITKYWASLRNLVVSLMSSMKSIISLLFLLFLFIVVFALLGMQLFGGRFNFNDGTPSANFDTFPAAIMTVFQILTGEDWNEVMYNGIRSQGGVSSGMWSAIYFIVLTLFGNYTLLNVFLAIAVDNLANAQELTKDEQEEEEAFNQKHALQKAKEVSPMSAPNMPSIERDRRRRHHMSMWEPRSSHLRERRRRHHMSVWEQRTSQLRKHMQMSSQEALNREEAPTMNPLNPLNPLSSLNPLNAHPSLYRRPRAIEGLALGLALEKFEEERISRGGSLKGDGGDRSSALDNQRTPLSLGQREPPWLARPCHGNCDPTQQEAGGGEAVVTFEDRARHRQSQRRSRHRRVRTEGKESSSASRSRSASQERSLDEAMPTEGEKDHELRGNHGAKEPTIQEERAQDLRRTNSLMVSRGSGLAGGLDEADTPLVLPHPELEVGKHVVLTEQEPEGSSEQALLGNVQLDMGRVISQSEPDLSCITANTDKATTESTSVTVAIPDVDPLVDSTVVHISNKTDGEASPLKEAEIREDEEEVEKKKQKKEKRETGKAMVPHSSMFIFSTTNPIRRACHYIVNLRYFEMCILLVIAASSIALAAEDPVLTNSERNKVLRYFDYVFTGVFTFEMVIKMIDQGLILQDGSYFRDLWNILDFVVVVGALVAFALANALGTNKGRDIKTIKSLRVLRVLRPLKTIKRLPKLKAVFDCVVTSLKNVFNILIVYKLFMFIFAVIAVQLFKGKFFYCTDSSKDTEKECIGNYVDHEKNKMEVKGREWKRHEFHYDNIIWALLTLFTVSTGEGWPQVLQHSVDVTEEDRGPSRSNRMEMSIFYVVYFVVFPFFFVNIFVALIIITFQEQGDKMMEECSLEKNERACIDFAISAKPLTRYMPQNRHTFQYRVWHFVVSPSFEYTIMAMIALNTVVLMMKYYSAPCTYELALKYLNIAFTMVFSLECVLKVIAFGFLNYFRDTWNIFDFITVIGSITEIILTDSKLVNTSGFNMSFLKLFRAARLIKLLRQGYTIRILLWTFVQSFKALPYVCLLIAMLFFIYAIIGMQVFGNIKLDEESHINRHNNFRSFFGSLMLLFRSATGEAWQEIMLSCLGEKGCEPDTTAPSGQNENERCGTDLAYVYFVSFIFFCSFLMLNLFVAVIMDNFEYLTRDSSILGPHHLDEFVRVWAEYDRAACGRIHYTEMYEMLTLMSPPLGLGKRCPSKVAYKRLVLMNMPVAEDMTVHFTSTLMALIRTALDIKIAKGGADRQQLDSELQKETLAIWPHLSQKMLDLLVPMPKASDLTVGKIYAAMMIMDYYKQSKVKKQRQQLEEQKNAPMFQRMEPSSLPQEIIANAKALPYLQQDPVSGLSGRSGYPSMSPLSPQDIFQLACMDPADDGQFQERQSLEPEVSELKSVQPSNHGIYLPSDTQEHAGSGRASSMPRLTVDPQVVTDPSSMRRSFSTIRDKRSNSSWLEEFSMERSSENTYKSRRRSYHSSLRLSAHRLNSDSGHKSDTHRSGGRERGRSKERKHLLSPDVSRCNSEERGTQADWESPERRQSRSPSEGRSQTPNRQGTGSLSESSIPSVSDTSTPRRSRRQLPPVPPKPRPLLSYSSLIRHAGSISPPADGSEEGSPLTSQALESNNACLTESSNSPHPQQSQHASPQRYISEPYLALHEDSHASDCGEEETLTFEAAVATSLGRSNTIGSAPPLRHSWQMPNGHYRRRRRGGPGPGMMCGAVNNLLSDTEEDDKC

For the molecule `CCOC(=O)C1=C(C)NC(C)=C(C(=O)OC)C1c1cccc([N+](=O)[O-])c1` (centres unmarked) [nitrendipine], the 50% inhibitory concentration (IC50) in test [1] (read-out: apparent IC50 for block of sustained component of depolarization evoked increase in internal calcium) was found to be 400 nM.

As for “omega-Aga-IIIA (from UniProt P33034 1-76) (peptide)”, in test [2], the IC50, block of peak inward calcium current, whole cell patch clamp of 192C cells was found to be 4 nM and the apparent IC50, depolarization-evoked calcium influx, INDO-1 fluorescence ratio, 192C cells came out at 5 nM.

As to HG-1 peptide, the IC50, block of peak inward calcium current, whole cell patch clamp of 192C cells in test [2] came out at 25 nM.

Regarding “SNX-629, synthetic peptide corresponding to HG-1 (7-41)”, the inhibition of calcium uptake; concentration relative to HG-1 in the same assay (times the concentration of HG-1) in test [2] was below 20.

On to `CCOC(=O)C1=C(C)NC(C)=C(C(=O)OC)C1c1cccc(Cl)c1Cl` (centres unmarked) [felodipine], for which the IC50 in test [3] was 600 nM.

B1: Aga-IIIA (peptide)
peptide: SCIDIGGDCDGEKDDCQCCRRNGYCSCYSLFGYLKSGCKCVVGTSAEFQGICRRKARQCYNSDPDKCESHNKPKRR
Turning to B1, in test [1] (GH3 cells), the “block of depolarization evoked signal” value is recorded as “potent but partial block”. Also, in test [1] (read-out: apparent IC50 for block of depolarization evoked signal, GH3 cells, evaluated at 60 seconds after depolarization, partial block), the IC50 is 1.5 nM.
